The record followed here is PubChem BioAssay AID220 (DTP/NCI, 2004).

The assay deals with CD8F1 mice, subcutaneous mammary adenocarcinoma, T/C%. The assay is described as follows: NCI In Vivo Anticancer Drug Screen. Data for tumor model Mammary Adenocarcinoma CD8F1 (subcutaneous) in CD8F1. The settings on record: higher = larger tumour. Here is the method: The antitumor activity of compounds was measured in mice bearing transplantable tumors. Survival or tumor size were measured and the results are expressed as the measurement made in the treated group (T) divided by the measurement made in the vehicle treated control group (C). The tumor model used in this assay is Mammary Adenocarcinoma CD8F1 (subcutaneous) in CD8F1

The mark [1] stands for this setting: endpoint: median tumor weight (est.), dose: 8.0 mg/kg/injection, schedule: Q07DX005 (ip), vehicle: saline.
Setting [2] is: endpoint: median tumor weight (est.), dose: 12.5 mg/kg/injection, schedule: Q07DX005 (ip), vehicle: Klucel (hydroxypropylcellulose) (HPC).
Where [3] appears, read: endpoint: median tumor weight (est.), dose: 50.0 mg/kg/injection, schedule: Q07DX005 (ip), vehicle: Klucel (hydroxypropylcellulose) (HPC).
Setting [4] is: endpoint: median tumor weight (est.), dose: 50.0 mg/kg/injection, schedule: Q07DX005 (ip), vehicle: saline with Tween-80.
Where [5] appears, read: endpoint: median tumor weight (est.), dose: 100.0 mg/kg/injection, schedule: Q07DX005 (ip), vehicle: saline with Tween-80.
[6] abbreviates: endpoint: median tumor weight (est.), dose: 0.37 mg/kg/injection, schedule: Q07DX005 (ip), vehicle: saline.

Records with an inconclusive call do not appear. For part of its entries the source gives two or more results. The other results are left out here. There may be further records. The values listed for one entry are repeated measurements in other runs, samples, wells, individuals or studies.

As for `[Cl][Mn][Cl]`, the T/C runs as follows: under setting [1], 91 % of control, 103 % of control, 118 % of control; (endpoint: median tumor weight (est.), dose: 16.0 mg/kg/injection, schedule: Q07DX005 (ip), vehicle: saline) 38 % of control, 97 % of control, 222 % of control; (endpoint: median tumor weight (est.), dose: 32.0 mg/kg/injection, schedule: Q07DX005 (ip), vehicle: saline) 23 % of control, 44 % of control, 167 % of control.
For the compound `NC(=O)c1cn(C2OC(CO)C(O)C2O)c2ncnc(N)c12` (configuration not stated), under “endpoint: median tumor weight (est.), dose: 4.0 mg/kg/injection, schedule: Q07DX005 (ip), vehicle: suspension in saline”, the T/C is 4 % of control and 46 % of control.
`CC1=CC(C)(C)Nc2ccc(CSc3ccccc3)cc21`: the T/C by setting is: (endpoint: median tumor weight change, dose: 500.0 mg/kg/injection, schedule: Q01DX001 (ip), vehicle: DMSO) 32 % of control and 72 % of control; (endpoint: median tumor weight change, dose: 1000.0 mg/kg/injection, schedule: Q01DX001 (ip), vehicle: DMSO) 6 % of control and 91 % of control.
Consider `CC(=O)OCC(=O)[C@@]12OC(C)(C)O[C@@H]1C[C@H]1[C@@H]3CC(C=O)=C4C=C(OCCCl)CC[C@]4(C)[C@@]3(F)[C@@H](O)C[C@@]12C`, for which the T/C by setting is: under setting [2], 37 % of control and 150 % of control; under setting [3], 29 % of control and 81 % of control.
On to `CCCC(=O)O.CCCC(=O)O.CCCC(=O)O.CCCC(=O)O.[Rh].[Rh]`, for which the T/C (endpoint: median tumor weight change, dose: 0.31 mg/kg/injection, schedule: Q01DX001 (ip), vehicle: saline + alcohol) was 76 % of control and 114 % of control.
As for `O=P1(NCCCl)OCCCN1CCCl` (configuration not stated), the T/C (endpoint: median tumor weight (est.), dose: 12.5 mg/kg/injection, schedule: Q07DX005 (ip), vehicle: saline) was 38 % of control and 103 % of control.
For the compound `C[n+]1ccc(Nc2ccc(NC(=O)c3ccc(Nc4cc[n+](C)c5ccc(N)cc45)cc3)cc2)cc1`, under “endpoint: median tumor weight (est.), dose: 8.0 mg/kg/injection, schedule: Q07DX005 (ip), vehicle: Klucel (hydroxypropylcellulose) (HPC)”, the T/C was 68 % of control and 105 % of control.
Regarding `C/C(=N/NC(N)=S)c1ccc2ccccc2c1`, the T/C (endpoint: median tumor weight (est.), dose: 25.0 mg/kg/injection, schedule: Q07DX005 (ip), vehicle: saline with Tween-80) was 41 % of control and 67 % of control; the T/C under setting [4] was 8 % of control and 63 % of control; the T/C under setting [5] was 1 % of control and 38 % of control.
On to `COc1cc2c(c(OC)c1OC)-c1ccc(OC)c(=O)cc1[C@@H](NC(C)=O)CC2`, for which the T/C reads like this: (endpoint: median tumor weight (est.), dose: 0.18 mg/kg/injection, schedule: Q07DX005 (ip), vehicle: saline) 65 % of control and 102 % of control; under setting [6], 54 % of control and 123 % of control.
`Cc1c2cc(Cl)c3ccccc3c2c[n+]2ccccc12`: the T/C was 54 % of control and 87 % of control under setting [5]; 13 % of control and 68 % of control (endpoint: median tumor weight (est.), dose: 200.0 mg/kg/injection, schedule: Q07DX005 (ip), vehicle: saline with Tween-80).
For the compound `CCN(CC)c1ccc2cc(-c3nc4ccccc4n3C)c(=O)oc2c1`, the T/C under setting [2] is 68 % of control and 94 % of control.
On to `CN(Cc1cnc2nc(N)nc(N)c2n1)c1ccc(C(=O)N[C@@H](CCC(=O)O)C(=O)O)cc1`, for which the T/C (endpoint: median tumor weight (est.), dose: 10.0 mg/kg/injection, schedule: Q07DX005 (ip), vehicle: sodium bicarbonate) was 61 % of control and 111 % of control.
`CC(=O)OCC1OC(OC2=C(CC=C(C)C)C(=O)c3ccccc3C2=O)C(OC(C)=O)C(OC(C)=O)C1OC(C)=O` (configuration not stated): the T/C under setting [3] is 73 % of control and 116 % of control.
Take `O=[N+]([O-])c1ccc(Cl)c([N+](=O)[O-])c1`: the T/C (endpoint: median tumor weight (est.), dose: 30.0 mg/kg/injection, schedule: Q07DX005 (ip), vehicle: saline with Tween-80) was 92 % of control and 182 % of control; the T/C (endpoint: median tumor weight (est.), dose: 60.0 mg/kg/injection, schedule: Q07DX005 (ip), vehicle: saline with Tween-80) was 80 % of control and 157 % of control.
On to `Cc1cnc(/C=N\NC(N)=S)c2cccc(N)c12`, for which the T/C (endpoint: median tumor weight (est.), dose: 6.25 mg/kg/injection, schedule: Q07DX005 (ip), vehicle: saline with Tween-80) was 32 % of control and 83 % of control.
Regarding `O=C1c2ccccc2C(=O)c2c(NCCNCCO)ccc(NCCNCCO)c21`, the T/C (endpoint: median tumor weight (est.), dose: 8.3 mg/kg/injection, schedule: Q07DX005 (ip), vehicle: Klucel (hydroxypropylcellulose) (HPC)) was 79 % of control and 123 % of control; the T/C (endpoint: median tumor weight (est.), dose: 16.6 mg/kg/injection, schedule: Q07DX005 (ip), vehicle: Klucel (hydroxypropylcellulose) (HPC)) is given as 46 % of control, 183 % of control, 999 % of control; the T/C (endpoint: median tumor weight (est.), dose: 31.25 mg/kg/injection, schedule: Q07DX004 (ip), vehicle: Klucel (hydroxypropylcellulose) (HPC)) is 4 % of control and 46 % of control; the T/C (endpoint: median tumor weight (est.), dose: 31.25 mg/kg/injection, schedule: Q07DX005 (ip), vehicle: Klucel (hydroxypropylcellulose) (HPC)) is reported as 37 % of control, 54 % of control, 88 % of control.
Consider `CCN1/C(=C/C=C/C=C\C=C\c2sc3ccc4ccccc4c3[n+]2CC)Sc2ccc3ccccc3c21`, for which the T/C (endpoint: median tumor weight change, dose: 12.5 mg/kg/injection, schedule: Q01DX001 (ip), vehicle: saline with Tween-80) is 56 % of control and 97 % of control; the T/C (endpoint: median tumor weight change, dose: 50.0 mg/kg/injection, schedule: Q01DX001 (ip), vehicle: saline with Tween-80) was 23 % of control and 72 % of control.
Regarding `O=c1[nH]c(=O)n(C2CC(O)C(CO)O2)cc1I` (configuration not stated), the T/C (endpoint: median tumor weight (est.), dose: 400.0 mg/kg/injection, schedule: Q07DX005 (ip), vehicle: saline with Tween-80) was 32 % of control and 66 % of control.
Regarding `COC(=O)[C@@H]1c2cc3c(c(O)c2[C@@H](OC)C[C@@]1(C)O)C(=O)c1c(O)cc2c(c1C3=O)OC1O[C@@]2(C)[C@H](O)[C@@H](N(C)C)[C@@H]1O`, the T/C is, setting by setting: (endpoint: median tumor weight (est.), dose: 6.25 mg/kg/injection, schedule: Q07DX005 (ip), vehicle: suspension in saline) 84 % of control and 152 % of control; (endpoint: median tumor weight (est.), dose: 25.0 mg/kg/injection, schedule: Q07DX005 (ip), vehicle: suspension in saline) 75 % of control, 92 % of control, 174 % of control.
Consider `C[CH2][Ge]1([CH2]C)[CH2]CC2(CCN(CCCN(C)C)C2)C[CH2]1`, for which the T/C under setting [1] is 35 % of control and 77 % of control.
With `C[C@]12CC[C@@H]3c4ccc(O)cc4CC[C@H]3[C@@H]1CC[C@@H]2O`, the T/C reads like this: under setting [2], 31 % of control and 84 % of control; (endpoint: median tumor weight (est.), dose: 400.0 mg/kg/injection, schedule: Q07DX005 (ip), vehicle: Klucel (hydroxypropylcellulose) (HPC)) 4 % of control, 52 % of control, 62 % of control.
Regarding `COC1C(O)CC(OC2CC(OC3CC(O[C@@H]4C(=O)c5c(cc6cc(OC7CC(OC8CC(O)C(O)C(C)O8)C(O)C(C)O7)c(C)c(O)c6c5O)C[C@H]4[C@H](OC)C(=O)[C@@H](O)[C@@H](C)O)OC(C)C3O)OC(C)C2O)OC1C` (some centres not stated), the T/C runs as follows: under setting [6], 14 % of control and 53 % of control; (endpoint: median tumor weight (est.), dose: 1.5 mg/kg/injection, schedule: Q07DX005 (ip), vehicle: saline) 21 % of control and 49 % of control.
Regarding `CC1=C(/C=C/C(C)=C/C=C/C(C)=C/C(=O)O)C(C)(C)CCC1`, the T/C (endpoint: median tumor weight (est.), dose: 32.0 mg/kg/injection, schedule: Q07DX005 (ip), vehicle: saline with Tween-80) was 49 % of control and 110 % of control; the T/C (endpoint: median tumor weight (est.), dose: 128.0 mg/kg/injection, schedule: Q07DX005 (ip), vehicle: saline with Tween-80) was 42 % of control and 110 % of control.
Turning to `Cc1[nH]c(=O)[nH]c(=O)c1N(CCF)CCCl`, under “endpoint: median tumor weight change, dose: 25.0 mg/kg/injection, schedule: Q01DX001 (ip), vehicle: Klucel (hydroxypropylcellulose) (HPC)”, the T/C is 50 % of control and 106 % of control.
Turning to `BrC1CC(Br)c2c1c1c(c3c2C(Br)CC3Br)C(Br)CC1Br` (configuration not stated), under setting [4], the T/C was 33 % of control and 72 % of control.
Consider `CC1CCC(n2cnc3c(Cl)ncnc32)O1` (configuration not stated), for which the T/C runs as follows: (endpoint: median tumor weight change, dose: 125.0 mg/kg/injection, schedule: Q01DX001 (ip), vehicle: Klucel (hydroxypropylcellulose) (HPC)) 58 % of control and 100 % of control; (endpoint: median tumor weight change, dose: 250.0 mg/kg/injection, schedule: Q01DX001 (ip), vehicle: Klucel (hydroxypropylcellulose) (HPC)) 47 % of control and 79 % of control; (endpoint: median tumor weight change, dose: 500.0 mg/kg/injection, schedule: Q01DX001 (ip), vehicle: Klucel (hydroxypropylcellulose) (HPC)) 45 % of control and 72 % of control.
Consider `O=P1(N(CCCl)CCCl)NCCCO1` (configuration not stated), for which the T/C was 24 % of control and 62 % of control (endpoint: mean tumor weight, dose: 20.0 mg/kg/injection, schedule: Q01DX009 (ip), vehicle: saline); 16 % of control and 45 % of control (endpoint: median tumor weight (est.), dose: 37.5 mg/kg/injection, schedule: Q07DX005 (ip), vehicle: saline).
